Test results: PubChem BioAssay AID1865 (National Center for Advancing Translational Sciences (NCATS), 2009)
Hit rate of the full screen: of about 280,000 compounds, about 540 (0.19%) were called active. Not shown: some 2% with an inconclusive outcome. Calls come from the whole dose curve; as a rule, active = well fitted activation curve with a large enough effect; inconclusive = small, poorly fitted or top-dose-only effect; inactive = flat fitted curve, though single readings scatter. This is a selection; strong and weak results do not stand in their true shares.

Experiment: Quantitative High-Throughput Screen for Regulators of Epigenetic Control; note: nearly all actives have a fitted effect of over 60% in size; for GFP activation: % of control where 0% means no effect
Conditions: murine LDR cells, GFP reporter derepression, 30 h; series mostly up to 53.9 µM; GFP activation: at the top concentration
Outline: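 In this reporter-derepression format, murine cells bearing a silenced integrated CMV-GFP locus incubate with test compound (30 h, 37 C), then are washed and imaged; fluorescent objects of 20–120 um count as induced cells.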
Potency is the fitted concentration of half-maximal effect.

Row | Compound | GFP activation | Potency
1 | CCCCCOC(=O)CSc1nnc(-c2cc(OC)c(OC)c(OC)c2)o1 | inactive: -3.17% | –
2 | Cc1ccc(NC(=O)c2sc3nc(-c4ccncc4)ccc3c2N)cc1 | – | active: 22.4 µM
3 | CCCn1nc(Oc2nc(SC)nc(N(C)C)n2)ccc1=O | inactive: -6.15% | –
4 | O=[N+]([O-])/C(C(Cl)=C(Cl)Cl)=C(\Sc1ccccc1)N1CCCCC1 | inactive: -3.86% | –
5 | Cc1ccc2nc3sc(C(=O)NCc4ccco4)c(N)c3cc2c1 | – | active: 15.8 µM
6 | O=[N+]([O-])c1ccc(/C=N/NC(=S)Nc2ccc(Cl)cc2Cl)s1 | – | active: 22.4 µM
7 | Cc1cccc(NC(=O)c2ccc(NCCc3ccccc3)c([N+](=O)[O-])c2)c1 | – | active: 17.8 µM
8 | COc1ccccc1C(=O)N1CCN=C1c1ccccc1 | inactive: -0.877% | –
9 | O=C(Nc1cccc(C(F)(F)F)c1)/C(=C/c1ccco1)NC(=O)c1cccs1 | inactive: 0.862% | –
10 | Cc1ccccc1NC(=O)Cn1c(=O)n(Cc2ccccc2)c(=O)c2c(C)c(C)sc21 | inactive: 7.96% | –
11 | O=c1c(O)c(-c2cc(O)c(O)c(O)c2)oc2cc(O)cc(O)c12 | – | inactive
12 | Cc1cc(NC(=O)Nc2cccc3ccccc23)no1 | inactive: -1.08% | –
13 | CCCCCCCCCCCCC/C=C\[C@@H](O)[C@H](CO)NC(C)=O | inactive: 0.424% | –
14 | Oc1c(I)cc(I)c2cccnc12 | inactive: -0.962% | –
15 | Cc1n[nH]c(=O)nc1NCCN(C)C | inactive: -3.37% | –
16 | O=C1S/C(=C\c2ccc(N3CCOCC3)o2)C(=O)N1c1ccccc1 | – | active: 14.1 µM
17 | COc1ccc(NC(=O)CSc2nnc(-c3ccccc3Cl)n2Cc2ccco2)c(OC)c1 | inactive: 2.83% | –
18 | Cc1cc2c(N=O)c(NO)ccc2[nH]1 | – | active: 15.8 µM
19 | COc1cc(CN(C)CCc2ccccn2)cc(OC)c1OC | inactive: -16.9% | –
20 | CC(C)N(C=O)C1(C(=O)NC2CCCCC2)CCCCC1 | inactive: -17.5% | –
21 | c1ccc(Cn2ncc3c(NCc4ccco4)ncnc32)cc1 | inactive: -11.1% | –
22 | COc1ccc(CCNC(=O)c2nnc(Cc3ccc(Cl)cc3)o2)cc1OC | inactive: 2.19% | –
23 | O=C(NC1CCCCC1)N1CCC(c2nc3ccc(Cl)cc3[nH]2)CC1 | inactive: 7.3% | –
24 | CCC(OC(=O)c1cccs1)C(=O)NCc1ccco1 (stereo not given) | inactive: -4.05% | –
25 | CCOC(=O)/C(C#N)=C/c1ccc(OC)c(OC)c1 | inactive: -0.0795% | –
26 | COc1cc(C)nc(Nc2nc(C)c(C(C)=O)s2)n1 | inactive: -6.8% | –
27 | CCN1CCc2c(C#N)c(N3CCCCC3)nc(N3CCOCC3)c2C1 | inactive: -7.69% | –
28 | CCc1ccccc1NC(=O)CN1C(=O)C2CCCN2c2ncc(Cl)cc21 (stereo not given) | inactive: -0.971% | –
29 | CC(=O)n1cc([C@H]2C=C(C(=O)NCc3ccccc3)O[C@@H](OCc3ccc(CO)cc3)C2)c2ccccc21 | inactive: -2.04% | –
30 | Cc1cc(C)c2cc(CN(Cc3ccco3)C(=O)NCc3ccccc3)c(=O)[nH]c2c1 | inactive: -1.75% | –
